Article PMC11110689
These are yes or no findings as the source states them, for the method shown. For some of these results: Binding seen in cells or lysates may run through a third protein. Some results given as binding are weak or reduced against the parent protein; the word gives no strength. For some of these results: Where a sequence is shown, tags or fusion partners need not be part of it.

The chains behind the UniProt entries cited, without tags or fusion partners.
UniProt Q9NWT6: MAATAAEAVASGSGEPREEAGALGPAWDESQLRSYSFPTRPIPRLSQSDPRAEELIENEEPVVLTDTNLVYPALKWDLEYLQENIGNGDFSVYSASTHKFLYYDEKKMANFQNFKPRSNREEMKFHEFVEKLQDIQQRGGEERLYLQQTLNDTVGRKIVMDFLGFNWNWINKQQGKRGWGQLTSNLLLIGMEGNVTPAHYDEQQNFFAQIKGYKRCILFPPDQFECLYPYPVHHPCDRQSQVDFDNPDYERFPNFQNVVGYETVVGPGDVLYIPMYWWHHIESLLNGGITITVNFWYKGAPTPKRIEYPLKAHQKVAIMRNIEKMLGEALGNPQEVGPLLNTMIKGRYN
UniProt Q04206: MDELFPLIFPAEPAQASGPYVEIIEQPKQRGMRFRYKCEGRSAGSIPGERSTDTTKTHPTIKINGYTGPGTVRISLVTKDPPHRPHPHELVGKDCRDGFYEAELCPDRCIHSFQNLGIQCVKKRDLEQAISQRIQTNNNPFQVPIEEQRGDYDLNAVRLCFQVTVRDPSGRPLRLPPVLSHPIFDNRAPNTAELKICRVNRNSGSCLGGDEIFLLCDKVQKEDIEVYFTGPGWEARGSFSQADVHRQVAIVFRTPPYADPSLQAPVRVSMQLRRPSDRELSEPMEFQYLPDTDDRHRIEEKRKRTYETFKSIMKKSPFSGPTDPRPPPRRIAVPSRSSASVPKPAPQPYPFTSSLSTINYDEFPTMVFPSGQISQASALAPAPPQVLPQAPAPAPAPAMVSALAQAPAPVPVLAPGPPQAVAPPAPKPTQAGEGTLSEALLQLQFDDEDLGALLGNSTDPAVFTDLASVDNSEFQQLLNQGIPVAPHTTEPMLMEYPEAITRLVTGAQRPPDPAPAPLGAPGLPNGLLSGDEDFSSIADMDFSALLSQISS
UniProt P19838: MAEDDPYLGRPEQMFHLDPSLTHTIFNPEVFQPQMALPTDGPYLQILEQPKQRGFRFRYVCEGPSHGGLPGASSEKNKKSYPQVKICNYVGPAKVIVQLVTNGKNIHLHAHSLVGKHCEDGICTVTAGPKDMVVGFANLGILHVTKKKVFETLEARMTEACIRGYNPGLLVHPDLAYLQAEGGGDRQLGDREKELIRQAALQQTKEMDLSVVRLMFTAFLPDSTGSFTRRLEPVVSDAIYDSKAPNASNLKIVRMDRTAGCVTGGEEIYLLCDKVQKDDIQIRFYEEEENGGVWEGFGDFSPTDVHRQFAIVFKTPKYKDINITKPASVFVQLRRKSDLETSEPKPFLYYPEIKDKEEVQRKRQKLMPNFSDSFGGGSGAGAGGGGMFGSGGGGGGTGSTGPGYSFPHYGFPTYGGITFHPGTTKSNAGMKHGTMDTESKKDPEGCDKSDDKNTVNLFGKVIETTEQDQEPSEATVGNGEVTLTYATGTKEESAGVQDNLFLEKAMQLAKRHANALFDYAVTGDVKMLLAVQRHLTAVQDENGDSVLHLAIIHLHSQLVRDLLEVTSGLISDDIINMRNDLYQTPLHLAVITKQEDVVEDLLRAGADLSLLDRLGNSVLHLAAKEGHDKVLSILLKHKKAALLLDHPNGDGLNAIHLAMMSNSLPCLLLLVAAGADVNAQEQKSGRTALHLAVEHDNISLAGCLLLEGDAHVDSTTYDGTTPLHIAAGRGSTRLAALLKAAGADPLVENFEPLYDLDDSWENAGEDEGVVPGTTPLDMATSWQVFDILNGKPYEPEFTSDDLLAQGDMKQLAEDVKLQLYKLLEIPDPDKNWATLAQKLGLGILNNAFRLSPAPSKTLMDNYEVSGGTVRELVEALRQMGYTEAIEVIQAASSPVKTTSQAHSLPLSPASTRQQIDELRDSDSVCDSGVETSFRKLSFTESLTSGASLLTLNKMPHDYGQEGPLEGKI
UniProt P22314: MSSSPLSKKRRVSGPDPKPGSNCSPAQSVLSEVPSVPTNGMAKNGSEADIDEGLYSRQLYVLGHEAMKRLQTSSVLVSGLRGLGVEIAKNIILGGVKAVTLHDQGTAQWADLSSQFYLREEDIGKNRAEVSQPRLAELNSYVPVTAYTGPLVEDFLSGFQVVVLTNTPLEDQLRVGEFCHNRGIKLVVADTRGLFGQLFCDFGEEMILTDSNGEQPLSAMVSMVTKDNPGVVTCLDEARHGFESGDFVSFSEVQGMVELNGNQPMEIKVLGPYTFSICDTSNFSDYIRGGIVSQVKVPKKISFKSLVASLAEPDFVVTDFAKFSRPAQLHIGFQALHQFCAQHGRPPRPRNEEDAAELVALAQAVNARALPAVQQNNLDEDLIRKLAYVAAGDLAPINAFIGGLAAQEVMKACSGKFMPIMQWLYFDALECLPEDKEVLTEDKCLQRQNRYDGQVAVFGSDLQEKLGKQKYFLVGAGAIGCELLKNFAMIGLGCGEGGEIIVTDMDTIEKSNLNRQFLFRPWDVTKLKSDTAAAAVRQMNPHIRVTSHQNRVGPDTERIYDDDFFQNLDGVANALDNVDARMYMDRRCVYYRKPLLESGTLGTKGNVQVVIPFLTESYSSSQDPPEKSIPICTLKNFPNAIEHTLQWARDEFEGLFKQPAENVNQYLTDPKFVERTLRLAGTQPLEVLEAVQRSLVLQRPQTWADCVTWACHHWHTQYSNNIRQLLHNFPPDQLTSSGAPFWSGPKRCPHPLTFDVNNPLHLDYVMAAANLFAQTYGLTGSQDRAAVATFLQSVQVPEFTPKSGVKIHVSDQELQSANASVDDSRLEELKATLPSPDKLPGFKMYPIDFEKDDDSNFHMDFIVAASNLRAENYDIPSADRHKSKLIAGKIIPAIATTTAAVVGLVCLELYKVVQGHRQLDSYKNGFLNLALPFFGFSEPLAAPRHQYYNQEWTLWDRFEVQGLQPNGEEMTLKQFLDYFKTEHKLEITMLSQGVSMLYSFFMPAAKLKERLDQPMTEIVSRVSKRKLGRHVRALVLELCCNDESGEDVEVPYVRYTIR

How the values were obtained:
[1] = molecular target: T1, NF-κB inhibitor β (IκBβ), FLAG-tagged (IκBβ-FLAG) (human) (UniProt Q15653); test: co-IP; IκBβ-FLAG expressed in HEK293 cells alone or with FIH-V5; immunoprecipitated with anti-V5 or anti-FLAG antibodies, immunoblot
T1 sequence: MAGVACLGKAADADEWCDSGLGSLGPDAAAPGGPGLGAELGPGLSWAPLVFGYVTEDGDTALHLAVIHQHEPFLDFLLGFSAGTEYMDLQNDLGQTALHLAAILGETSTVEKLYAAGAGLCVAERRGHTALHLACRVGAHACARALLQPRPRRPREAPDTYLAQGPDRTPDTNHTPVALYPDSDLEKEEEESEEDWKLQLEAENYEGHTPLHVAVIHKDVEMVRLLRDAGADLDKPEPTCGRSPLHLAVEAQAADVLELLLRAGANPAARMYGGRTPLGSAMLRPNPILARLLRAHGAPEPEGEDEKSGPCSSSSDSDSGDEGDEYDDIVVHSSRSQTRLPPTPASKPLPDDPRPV

[2] = molecular target: FIH-IκBβ oxomer (FIH-V5 with IκBβ-FLAG) (UniProt Q9NWT6); test: as above
[3] = molecular target: factor inhibiting HIF (FIH), V5-tagged (FIH-V5) (UniProt Q9NWT6); test: immunoblot of a denaturation-resistant (SDS-PAGE) complex; HEK293 cells transiently co-transfected, normoxia; complex seen at the summed molecular weight; also with FG-4592 (0.1 mM), DM-NOFD (1 mM) or MG132 (10 μM), and with lysates treated with DTT or β-mercaptoethanol, 5 min at 95 °C; shows only complexes that resist denaturation
[4] = molecular target: factor inhibiting HIF (FIH), V5-tagged (FIH-V5) (UniProt Q9NWT6); test: immunoblot of a denaturation-resistant (SDS-PAGE) complex; ectopic co-expression of UBA1 with FIH; cells not stated (Figure S2)

In the case of “NF-κB subunit p65 (from UniProt Q04206 1-551)”, the binding [1] is reported as “binds” and the binding [2] is reported as “no binding”.

p105 (from UniProt P19838 1-968) was tested, and the binding [3] was “no binding”.

In the case of “ubiquitin-like modifier-activating enzyme 1 (UBA1) (from UniProt P22314 1-1058)”, the binding [4] is reported as “binds”.
